Test results as given in PubChem BioAssay AID493208 (National Center for Advancing Translational Sciences (NCATS), 2011).
Hit rate of the full screen: of about 44,000 compounds, about 340 (0.77%) were called active. Another 5% or so got no clear call; they are omitted. The call rests on the fitted dose curve; in most records, active means well fitted inhibition curve with a large enough effect; inconclusive means small, poorly fitted or top-dose-only effect; inactive means flat fitted curve, though single readings scatter. The list shows a part of the results.

Assay: Acumen qHTS Assay for Inhibitors of the mTORC1 Signaling Pathway in MEF (Tsc2-/-, p53-/-) Cells: Sytravon;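 further: plate controls were DMSO for no effect and rapamycin for full effect; nearly all actives have a fitted effect of over 50% in size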
Conditions: phospho-rpS6 immunofluorescence/PI, 24 h; series mostly up to 38.3 µM; activity change, negative = inhibition: at the top concentration
Method in brief: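 Immunofluorescence of rpS6 phosphorylation in Tsc2-/-, p53-/- MEFs after 24 h compound exposure, normalized to propidium iodide signal. Activity is expressed as % positive cells, thresholded with 7.5 nM rapamycin.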

Activity change, negative = inhibition, inactive:
COc1cc(NC(=O)CSc2nc3nc(C)c(Cc4ccccc4)c(C)n3n2)cc(OC)c1OC 2.59%
COC(=O)c1ccc(NC(=O)C2CCN(S(=O)(=O)c3ccc4c(c3)CCCN4C(C)=O)CC2)cc1 -8.81%
COc1ccc(CC(=O)Nc2sc3c(c2C(=O)Nc2ccc(C)cc2)CCCCC3)cc1 7.91%
CCc1cccc(C)c1Nc1c(-c2cccc(O)c2)nc2sccn12 9.39%
Cc1nn(-c2ccc(F)cc2)c(-n2cccc2)c1C(=O)N1CCN(c2ccccc2F)CC1 -1.16%
COc1ccccc1CNC(=O)CN(c1ccc(C)cc1)S(=O)(=O)c1c(C)noc1C -0.88%
Cc1c(C(=O)Nc2ccc(F)c(F)c2)oc2ccc(S(=O)(=O)N3CCC4(CC3)OCCO4)cc12 7.64%
O=C(Nc1c(-c2ccc(F)cc2)nc2ccccn12)c1cccc(F)c1 0%
CC(=O)Nc1ccc(NS(=O)(=O)c2ccc(Cl)s2)cc1 -6.75%
CCCCc1ccc(NS(=O)(=O)c2ccc(N3CCCCS3(=O)=O)cc2)cc1 14.3%
CCOc1ccc(C(=O)c2cn(Cc3ccccc3)c3c(F)cc(F)cc3c2=O)cc1 1.84%
COc1ccc(OC)c(NC(=O)c2cnc(N3CCCC3)nc2C)c1 0%
O=C(CN1C(=O)CCc2cc(S(=O)(=O)N3CCOCC3)ccc21)NCc1ccccc1Cl 0%
CCCOc1ccc(NC(=O)CC2C(=O)N(c3ccc(C)cc3)C(=O)N2C2CCCC2)cc1 (stereo unspecified) -5.89%
CCSc1nnc2c(n1)OC(c1sccc1C)N(C(C)=O)c1ccccc1-2 (stereo unspecified) -5.32%
O=C(CSc1nc2c([nH]c3ccccc32)c(=O)n1-c1ccc(F)cc1)NCc1ccco1 -12.7%
CC1=C(C(=O)Nc2cc(Cl)ccc2C)C(c2ccco2)n2ncnc2N1 (stereo unspecified) 2.41%
O=C(NCc1cccc(F)c1)c1ccc2nc(N3CCCCC3)sc2c1 -5.77%
CCOC(=O)C1CCCN(S(=O)(=O)c2cc3c(cc2C)NC(=O)CO3)C1 (stereo unspecified) 4.67%
Cc1ccc(OCC(=O)Nc2ccc3nc(SCC(N)=O)sc3c2)cc1 0.857%
COc1ccc(Cn2c(=O)c3oc4ccccc4c3n(Cc3cccc(F)c3)c2=O)cc1 -7.78%
Cc1c(C)n(C)c2ccc(C(=O)NCCc3ccc(Cl)cc3)cc12 -3.6%
COC(=O)c1c(C)oc2ccc(N(C(=O)Oc3ccccc3)S(=O)(=O)c3ccc(C(C)(C)C)cc3)cc12 4.77%
O=C(NCCc1ccc(Cl)cc1)c1ccc2c(c1)N(Cc1c(F)cccc1Cl)C(=O)CS2 0%
Cc1ccc(NC(=O)C2CCCN(S(=O)(=O)c3c(C)n[nH]c3C)C2)cc1Cl (stereo unspecified) -21.5%
CCOC(=O)c1c(NC(=O)C(C)Sc2cn(CCNC(=O)c3ccccc3OC)c3ccccc23)sc2c1CCC2 (stereo unspecified) -13.1%
